Experimental data from the RNAGym collection of RNA variant scans (doi:10.7554/elife.90254).
Read counts are not given, so values of variants with three or more changes are uncertain.

B1: LINE1-mini (parent)
chain: GGCAGAGCUCAACACAGCGUGGCAAAGUGGCUGUGGCUAGACUGCC

Variants of: B1
Test: self-cleavage, relative activity (ratio to wild type); higher = more cleavage; in vitro, sequencing; the parent is a self-cleaving ribozyme
With GGCAGAGCUCAACACAGGGUGGCAAAGUGGCUGUAGCUAAACUGCC the self-cleavage was 0.01.
For GGCAGAGCUCAACACAGGGUGGCAAAGUGGCGGUGGCUAGACUGGC, the self-cleavage was 0.03.
GGCAGAGCUCAACACAGUUUCGCAGCGUUGCUGUGGCUAGACUGCC gave a self-cleavage of 0.6.
In the case of GGCAGAGCUCAACACAGUGUGGGAAAGUUGCUGUGGCCAGACUGCC, the self-cleavage is reported as 0.38.
Variant GGCAGAGCUCAACACAGUUUGGCAAAGUGGCUGAGGCUAGACUGCC has a self-cleavage of 0.02.
Work on GGCAGAGCUCAACACAGUUUGGCAAAGUGGCUGUGCCUAGACUGCC yielded a self-cleavage of 0.06.
For GGCAGAGCUCAACACAGUGUGGCAAAGUGGUAGCGGCUAGACUGCC, the self-cleavage was 0.05.
Work on GGCAGAGCUCAACACAGUAUGGCAAAGUGGCUGUGGCGACACUGCC yielded a self-cleavage of 0.02.
With GGCAGAGCUCAACACAGGGUGGCAAAGUUGCUGUGGCUAGACAGAC the self-cleavage was 0.02.
GGCAGAGCUCAACACAGUUUGGCAAAGUGGCCGUGGCUAGACUGCC gave a self-cleavage of 0.29.
For GGCAGAGCUCAACACAGUGUGGCAAAGUGGGGGUGGCUAGACUGCC, the self-cleavage was 0.02.
For GGCAGAGCUCAACACAGGGGGGCAUAGUGGCUCUUGCUAGACUGCC, the self-cleavage was 0.01.
In the case of GGCAGAGCUCAACACAGUGUGGCAUAAUGGCUGUGGCUAGACUGCC, the self-cleavage is reported as 0.9.
Work on GGCAGAGCUCAACACAGUGUGGCAAAGUGGCUGUGGAUUGACUGCC yielded a self-cleavage of 0.11.
In the case of GGCAGAGCUCAACACAGGGUGGCAAAGUGGCUGCGGCUUGACUGCC, the self-cleavage is reported as 0.03.
With GGCAGAGCUCAACACAGUGUGGUAAAGUGGCUAUGUCUAGACUGCC the self-cleavage was 0.06.
In the case of GGCAGAGCUCAACACAGGGUGGCAAAGUGGCUGUGACUAGACUGCG, the self-cleavage is reported as 0.02.
Work on GGCAGAGCUCAACACAGUCUGGCAAAGUGGCUGUAGCUAGACUGCC yielded a self-cleavage of 0.04.
With GGCAGAGCUCAACACAGGGUGGCAAAGUGGCUGUGUCUAGAAUGCC the self-cleavage was 0.04.
In the case of GGCAGAGCUCAACACAGUCUGGCAAAGUGACUGUGGCUAGACUGCC, the self-cleavage is reported as 1.05.
In the case of GGCAGAGCUCAACACAGUGUGGCGAAGUGGUUGUGGCUAGACUGCA, the self-cleavage is reported as 0.05.
In the case of GGCAGAGCUCAACACAGGGUGCCAAAGUGGUUGUGGCUAGACUGCC, the self-cleavage is reported as 0.06.
With GGCAGAGCUCAACACAGUGUGGCACAGUGGCUGUGGUUCGACUGCC the self-cleavage was 0.04.
Variant GGCAGAGCUCAACACAGUGUGGUAAAGUGGCUGUGGCUAGAUUGAC has a self-cleavage of 0.06.
GGCAGAGCUCAACACAGGGUGGCAAAGUGGCUCUGGAUAGACUGCC gave a self-cleavage of 0.07.
GGCAGAGCUCAACACAGGGUGGCAAAGUGGCUGUGGCUACACUUCC gave a self-cleavage of 0.05.
With GGCAGAGCUCAACACAGUGUGGCAUAGUGGGUGUGGCUAGAAUGCC the self-cleavage was 0.05.
Work on GGCAGAGCUCAACACAGUGUGGCAACUUGGCUGAGGCUAGACUGCC yielded a self-cleavage of 0.03.
In the case of GGCAGAGCUCAACACAGUGUUGCAAAGUGGCUGUUGCUAGUCUGCC, the self-cleavage is reported as 0.04.
GGCAGAGCUCAACACAGUAUGGAAAAGUGGCUGUGGGUAGACUGCC showed a self-cleavage of 0.
In the case of GGCAGAGCUCAACACAGUGUGGCUAAGUGGCUGUGGCUAGACAGCC, the self-cleavage is reported as 0.04.
With GGCAGAGCUCAACACAGUGUGGCAUAGAGGCUGUGGCUAGACUGCC the self-cleavage was 0.01.
GGCAGAGCUCAACACAGUGUGGGAAAGUGGCUGUGGCUAGACCCCG gave a self-cleavage of 0.01.
Variant GGCAGAGCUCAACACAGGGUGGCAAAGUGGCUGUAGCCAGACUGCC has a self-cleavage of 0.08.
GGCAGAGCUCAACACAGUGUGGCAAUGUGGCUGUGGCUACACUGCC gave a self-cleavage of 0.04.
In the case of GGCAGAGCUCAACACAGGGAGGGAAAGUUGCUGUGGCUAGACGUCC, the self-cleavage is reported as 0.03.
GGCAGAGCUCAACACAGGGUGGCAAAGUGGCUGUUGCUAGACGGCC gave a self-cleavage of 0.01.
With GGCAGAGCUCAACACAGGGUGGCAAAGUGGCUGUGCCUAGAUUGGC the self-cleavage was 0.
In the case of GGCAGAGCUCAACACAGUGUGGCAAUUUGGCUGUGACUAGACUGCC, the self-cleavage is reported as 0.18.
Variant GGCAGAGCUCAACACAGUGUGGCAGAGUGGCUGUGGCUAGCCUGCC has a self-cleavage of 0.01.
Work on GGCAGAGCUCAACACAGUCUAGCAAAGUGGCUGGGGCCAGUCUUCC yielded a self-cleavage of 0.03.
Variant GGCAGAGCUCAACACAGUGUCGCAAAGUGGCUGUGGCUAGACUGCA has a self-cleavage of 2.17.
Variant GGCAGAGCUCAACACAGUGUGGAAUAGUGGCUGUGCCUAGACUGCC has a self-cleavage of 0.03.
For GGCAGAGCUCAACACAGGGUGGCAAAUUGCCUGUGGCUAGACUGCC, the self-cleavage was 1.4.
For GGCAGAGCUCAACACAGUGUGGUAAAGUAGCUGUGGCUAGACUGCA, the self-cleavage was 0.83.
With GGCAGAGCUCAACACAGUGUUGCAAAGUGGCUGUGUCUAGACUGCC the self-cleavage was 0.03.
With GGCAGAGCUCAACACAGGGUGGCAAAGUGGCUUUGUCUAGACUGCC the self-cleavage was 0.1.
GGCAGAGCUCAACACAGGGUGGCAAAGUGGCUGUGGCUAGACUUGC showed a self-cleavage of 0.62.
Variant GGCAGAGCUCAACACAGGGCGGCUAAGUGGCUGUGGCUAGUCUGCC has a self-cleavage of 0.07.
Work on GGCAGAGCUCAACACAGUGUGGCAACAUGGCUGUGGCUAGACUGCC yielded a self-cleavage of 0.66.
Work on GGCAGAGCUCAACACAGGGUGCCAAAGUGACUGUGGCUAGGCUGCC yielded a self-cleavage of 0.02.
Work on GGCAGAGCUCAACACAGUGUGGCAACGUGGCUUUGGCUAGAAUGCC yielded a self-cleavage of 0.03.
GGCAGAGCUCAACACAGGGUGGCAAAGAGGCGGUGGCUUGACUGCC gave a self-cleavage of 0.05.
Work on GGCAGAGCUCAACACAGGGUGUCAAAGUGACUCUGGCUAGACUGCC yielded a self-cleavage of 2.84.
GGCAGAGCUCAACACAGUCUGGCAAAGUGGCUGUAGCUAGUCUGCU gave a self-cleavage of 0.06.
Work on GGCAGAGCUCAACACAGUGUGGCAAGGUGGCUGUGUCUAGACUGCC yielded a self-cleavage of 0.06.
